According to PubChem BioAssay AID1745853 (National Center for Advancing Translational Sciences (NCATS), 2022):
The list shows a part of the results. These are further read-outs of the screen, such as a control signal, another cell line or another target. No call is given for them.

What was measured:
Assay in all cases: Primary Screen for Target Class Profiling of Small Molecule Inhibitors of Methyltransferases
[1] = molecular target: Glycine N-methyltransferase (Homo sapiens) (UniProt Q14749); conditions: purified enzyme, MTase-Glo SAH luminescence; measured here: GNMT inhibition; at 40 µM; stronger effect = lower value
In short: (§1)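 Each enzyme was reacted with SAM and its substrate, with compounds tested once at 40 uM; SAH formed was read by MTase-Glo luminescence.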

[2] = molecular target: Guanidinoacetate N-methyltransferase (Homo sapiens) (UniProt Q14353); conditions: purified enzyme, MTase-Glo SAH luminescence; measured here: GAMT inhibition; at 40 µM; stronger effect = lower value
In short: as §1

[3] = molecular target: Histamine N-methyltransferase (Homo sapiens) (UniProt P50135); conditions: purified enzyme, MTase-Glo SAH luminescence; measured here: HNMT inhibition; at 40 µM; stronger effect = lower value
In short: as §1

[4] = molecular target: Nicotinamide N-methyltransferase (Homo sapiens) (UniProt P40261); conditions: purified enzyme, MTase-Glo SAH luminescence; measured here: NNMT inhibition; at 40 µM; stronger effect = lower value
In short: as §1

[5] = molecular target: Phenylethanolamine N-methyltransferase (Homo sapiens) (UniProt P11086); conditions: purified enzyme, MTase-Glo SAH luminescence; measured here: PNMT inhibition; at 40 µM; stronger effect = lower value
In short: as §1
% is set by controls: 0 for no effect and ±100 for the full control effect.

| Structure (SMILES) | activity change, negative = inhibition [1] [%] | activity change, negative = inhibition [2] [%] | activity change, negative = inhibition [3] [%] | activity change, negative = inhibition [4] [%] | activity change, negative = inhibition [5] [%] |
| --- | --- | --- | --- | --- | --- |
| C[C@@]1(C(=O)O)CCC[C@@]2(C)C3=CC[C@H]4C[C@@]3(CC[C@H]12)CC4(O)CO (stereo not given in full) | 0 | 6.01 | 7.96 | -7.89 | 6.96 |
| C/C(=C\c1ccc(C(=O)O)cc1)c1ccc2c(c1)C(C)(C)CCC2(C)C | -1.57 | 5.2 | 0.857 | -11.5 | 5.07 |
| CN(C)C1CCCN(C(=O)c2csc3c2CCCC3)CC1 (stereo not given) | -1.42 | -2.52 | 0.082 | -3.59 | -13.3 |
| COC1CC(=O)C23C(=O)NC(CC(C)C)C2C(C)C(C)=CC3/C=C(\C)CCCC1O (stereo not given) | 0 | -10.2 | -1.2 | -21.6 | -2.06 |
| CC1(C(=O)NC2CCCCCCC2)Cc2ccccc2C(=O)N1Cc1cccs1 (stereo not given) | -5.63 | 3.86 | 2.45 | -11.7 | -5.57 |
| O=c1c2ccccc2n2c(=O)n(Cc3ccc(F)cc3Cl)nc2n1CCc1ccccc1 | 1.59 | 0 | 9.69 | 5.1 | 3.1 |
| CN(C)CCNC(=O)c1ccc(-c2nnc3ccc(NC(=O)C4CCC4)cn23)cc1 | -5.26 | -8.68 | -5.74 | -10.6 | -10.8 |
| COc1cccc(C(=O)N[C@H]2[C@H](O)[C@H](O)C[C@@H]2c2cccnc2)c1 | -1.27 | 4.65 | 1.14 | 4.54 | 17.7 |
| CC(C)CCn1c(=O)c2ccccc2n2c(CCC(=O)NCc3ccccc3)nnc12 | -7.85 | 1.52 | 6.44 | -1.95 | 2.43 |
| CCc1ccc(CN2C(=O)c3nc4ccccc4n3CC2(C)C(=O)NCc2ccccc2)cc1 (stereo not given) | 3.79 | 1.51 | 8.06 | 9.98 | 4.62 |
| Cc1ccccc1Cn1nc2n(C(C)C)c(=O)c3ccc(C(=O)NC(C)C)cc3n2c1=O | 2.32 | 1.01 | 12.1 | -3.23 | 5.18 |
| CCc1ccccc1NC(=O)Cn1nc2n(CCC(C)C)c(=O)c3ccc(C(=O)NC(C)C)cc3n2c1=O | 4.08 | 0 | 4.88 | 3.12 | 4.19 |
| Cc1ccc2nc(NC(=O)CSc3nc4c(c(=O)n3-c3ccc(F)cc3)SCC4)sc2c1 | -5 | -0.828 | 5.76 | -3.68 | 2.88 |
| CC1CCCC(NC(=O)C2(C)Cn3c(cc4sccc43)C(=O)N2Cc2ccccc2)C1C (stereo not given) | -6.22 | 1.19 | -4.1 | -1.79 | -3.4 |
| CCCN1C(=O)c2c(C(=O)NCc3ccc(OC(C)C)cc3)ncn2CC1(C)C(=O)NCc1ccc(OC)cc1 (stereo not given) | -0.104 | 3.52 | -5.8 | 2.18 | 2.13 |
| CCCCNc1c(C(=O)OCC)c(C)nc2c1cnn2CC | -10.6 | -1.83 | -6.49 | -25.1 | -5.02 |
| O=S(=O)(NCCn1c(CCc2ccccc2)nc2ccccc21)c1ccc(Br)cc1 | -1.86 | 0 | -1.11 | -10.7 | 2.24 |
